According to the supplement of paper PMC10126150:
Sequences with one replicate were seen in a single cluster, so their values are uncertain.

Tested on: ATP
Experiment: switch fluorescence ratio, 500 uM ATP over buffer (Cy3 cluster intensity, sum of 5 cycles each) (fold (ratio)); higher = stronger signal-on switching upon ATP binding; sequences stand for … in TCGTCGGCAGCGTCAGATGTGTATAAGAGACAGTTTTTTTTTTTTTTTTTTTTTTTTT…TC
Conditions: aptamer strand: ATP DNA aptamer (quencher-CACCTGGGGGAGTATTGCGGAGGAAGG + anchor), 100 nM annealed; ATP concentration: 500 uM; one replicate
Outline: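 Imaging in selection buffer was followed by imaging after 15 min with 500 uM ATP at 22 °C, for Cy3-labelled switching-strand clusters annealed to 100 nM quencher-labelled ATP aptamer on a modified Illumina MiSeq flow-cell. Five of these buffer/ATP cycles ran, separated by NaOH stripping and re-annealing. The fluorescence ratio per cluster is summed target-cycle over summed buffer-cycle Cy3 intensity, averaged per switch-domain sequence; clusters outside 100-1000 RFU were removed.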
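Note: ATP exposure 15 min at 22 °C before imaging.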

Row | Sequence | switch fluorescence ratio
1 | GTTACCCTTC | 1.06
2 | CCAAGACCAT | 0.975
3 | AAACGGAGTT | 0.971
4 | TGCCCGCATA | 2.1
5 | ATTGGATCGT | 0.984
6 | TAATTACTAA | 0.974
7 | TGCATAAAGT | 0.997
8 | TTGTGAGTC | 0.974
9 | AAAGGCTGTG | 1.13
10 | GGTTATATAC | 1.12
11 | GATATTGTCT | 0.959
12 | TTCTGTGAGG | 0.985
13 | TCGGGAGGAA | 1.02
14 | AGGTGTAAT | 0.994
15 | ATCACTTCAC | 1.26
16 | CGCGTGACG | 0.955
17 | AAGCCTACGG | 1.02
18 | AATGTCAAGG | 1.02
19 | GTGGGTGTTA | 0.993
20 | CCGGTTCCTG | 1.02
21 | CAGTCATTGG | 1
22 | GCTGTTAGTC | 1.01
23 | AGATTATCCA | 1.03
24 | CTCGGTAACT | 1.11
25 | CTCAAAGCC | 1.06
26 | GGTTATATCT | 1

Row | Sequence | switch fluorescence ratio
27 | AGGGATGCCT | 0.998
28 | ATATGCTATG | 1.02
29 | TCTGCCACAA | 1.85
30 | GATGTTATTG | 0.965
31 | ATGGGTAAGT | 1
32 | AACGGTCACG | 1.04
33 | ACATTGTGCT | 0.938
34 | CGTGGACCCT | 1.01
35 | GGTGACGACT | 1.09
36 | AATCGAATTA | 0.989
37 | TAACGTAAAT | 0.997
38 | TGCGGGGAAA | 1.3
39 | TTATCGGTGA | 0.978
40 | TATCGCGCGC | 0.98
41 | GCAATTTCTG | 1.02
42 | ACTCAATGGT | 1.03
43 | ACGAGCAAGG | 2.68
44 | GAACAAAGCC | 1.04
45 | TCTTCTCGGA | 0.996
46 | TTCGAGTAGC | 1.01
47 | CCAAGCGAGA | 1.36
48 | TGAGTGCAGT | 1
49 | TATTAA | 1.01
50 | GGATCTTATT | 0.954
51 | ATAGTATAA | 1.04
52 | TTTTTTCGC | 1.03

Row | Sequence | switch fluorescence ratio
53 | CTTGTCAATA | 1.3
54 | AAGATCTGCG | 1.01
55 | GGGTACCTGA | 1.02
56 | ACGCATCTCT | 1.56
57 | TACTAAATGC | 1.12
58 | GGGTGTAGT | 1.02
59 | TAGGCGAATG | 0.954
60 | GCATCAACTG | 0.931
61 | CCGCGGGTC | 2.59
62 | TGGTAAGGAT | 0.969
63 | CTGTCACGTT | 0.973
64 | ACCTGCTTGA | 1.07
65 | CTACTCTGGG | 1.02
66 | CACAGCAGTT | 1.12
67 | TTTTTATCGA | 0.976
68 | GGGGTGCGTC | 1
69 | GACTTGT | 0.98
70 | CACTTTGGCC | 1.02
71 | TGGTT | 0.98
72 | CTGATGAGAC | 2.5
73 | GCTATTTTCC | 1.07
74 | TCAAGTTTCA | 0.981
75 | GTATTTGTAA | 1.02
76 | AGAAGCGCCC | 1.01
77 | GCCGGGGTTT | 0.997
